Measured values published in publication PMC4336329 (PLoS ONE, 2015).
Among all 310,000 compounds or so, about 2,200 (0.71%) showed an effect of 50% or more. The effect is printed as a negative number. Some of the results follow.

The compounds below were run against human ether-à-go-go-related gene (hERG) potassium channel (human, UniProt Q12809) (assay: primary screen, population patch clamp on CHO cells stably expressing hERG).
Chain of human ether-à-go-go-related gene (hERG) potassium channel (Q12809 whole entry, looked up): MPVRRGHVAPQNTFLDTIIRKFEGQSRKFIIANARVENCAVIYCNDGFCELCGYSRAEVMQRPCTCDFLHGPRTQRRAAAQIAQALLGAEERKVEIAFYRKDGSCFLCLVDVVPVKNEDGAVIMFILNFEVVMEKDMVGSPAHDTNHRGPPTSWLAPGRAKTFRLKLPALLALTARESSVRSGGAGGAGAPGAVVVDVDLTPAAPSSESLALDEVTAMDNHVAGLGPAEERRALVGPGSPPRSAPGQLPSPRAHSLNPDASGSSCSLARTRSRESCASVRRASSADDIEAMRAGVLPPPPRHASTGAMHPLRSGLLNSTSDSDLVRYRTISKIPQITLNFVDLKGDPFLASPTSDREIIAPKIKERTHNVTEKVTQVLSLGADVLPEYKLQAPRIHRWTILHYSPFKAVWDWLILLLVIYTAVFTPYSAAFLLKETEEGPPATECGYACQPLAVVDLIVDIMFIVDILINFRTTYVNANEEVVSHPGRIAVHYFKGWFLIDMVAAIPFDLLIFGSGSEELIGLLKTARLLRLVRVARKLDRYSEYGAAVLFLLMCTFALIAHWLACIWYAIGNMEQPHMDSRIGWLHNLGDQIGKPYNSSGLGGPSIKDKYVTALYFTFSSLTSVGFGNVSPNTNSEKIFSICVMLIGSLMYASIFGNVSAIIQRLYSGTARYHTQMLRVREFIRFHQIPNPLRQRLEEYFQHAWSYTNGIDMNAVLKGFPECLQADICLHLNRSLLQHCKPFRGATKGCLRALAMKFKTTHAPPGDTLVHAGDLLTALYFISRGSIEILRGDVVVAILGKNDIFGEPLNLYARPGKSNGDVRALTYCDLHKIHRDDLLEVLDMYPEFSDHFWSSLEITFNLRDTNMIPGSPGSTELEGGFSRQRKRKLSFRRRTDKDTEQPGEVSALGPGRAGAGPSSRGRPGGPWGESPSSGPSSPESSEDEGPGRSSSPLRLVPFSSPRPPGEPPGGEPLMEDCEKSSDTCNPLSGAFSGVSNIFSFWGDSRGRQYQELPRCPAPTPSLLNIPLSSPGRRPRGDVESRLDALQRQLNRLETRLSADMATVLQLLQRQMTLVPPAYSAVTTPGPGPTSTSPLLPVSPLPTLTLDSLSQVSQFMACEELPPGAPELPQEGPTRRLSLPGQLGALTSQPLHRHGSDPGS

| SMILES | hERG current change (%, negative = inhibition) at 1uM |
| --- | --- |
| CC(OC(=O)CSc1ccc([N+](=O)[O-])cc1)C(=O)NCc1ccccc1 (stereo not drawn) | 21.4% |
| O=C(O)c1cc(S(=O)(=O)Nc2ccccc2Cc2ccccc2)ccc1Cl | 26.3% |
| COc1ccc(C(C)=O)cc1COc1ccc(Cl)c(C)c1 | 11.9% |
| c1ccc(CSc2nnc3ccc(-c4ccncc4)nn23)nc1 | 11.6% |
| CCc1ccc(S(=O)(=O)Nc2ccc(O)c3c(=O)cc(-c4ccccc4Cl)oc23)cc1 | 9.83% |
| O=C(COC(=O)/C=C/c1ccc(Cl)cc1Cl)NCc1ccco1 | 8.68% |
| CC(=O)NC(C)C12CC3CC(CC(CC(=O)O)(C3)C1)C2 (stereo not drawn) | 17.4% |
| O=C(CNC(=O)C12CC3CC(CC(C3)C1)C2)N/N=C\c1ccco1 | 5.89% |
| COc1cccc(-c2cc(C(=O)NCCCN3CCOCC3)no2)c1 | 5.83% |
| COCCNC(=S)N/N=C/c1ccc(OCc2ccc(C(=O)OC)cc2)c(OC)c1 | 21.3% |
| CCOC(=O)CSc1nc2c(sc(=S)n2-c2ccc(OCC)cc2)c(=O)[nH]1 | 11.9% |
| CCCCNC(=S)NNC(=O)c1cc(C)on1 | 13% |
| O=C(CSc1nc(=O)[nH]c2c1CCCC2)Nc1ccc(F)cc1F | 8.05% |
| O=C(CCCN1C(=O)/C(=C/c2cccs2)SC1=S)Nc1ccccn1 | 24.2% |
| Fc1ccc(C2CCCCN2Cc2nc(CC3CC3)no2)cc1 (stereo not drawn) | 6.08% |
| CCC(=O)Nc1nc2cc(OC)ccc2s1 | 0.782% |
| CCOC(=O)C(NC(=O)c1ccccc1)(N1CCOCC1)C(F)(F)F (stereo not drawn) | 9.8% |
| CCc1ccc(NC(=O)CS(=O)CC(=O)N2CCN(c3ccccc3F)CC2)cc1 (stereo not drawn) | 9.52% |
| COC(=O)c1cc2c(s1)-c1cc(F)ccc1OC2 | 13.6% |
| Cc1nc(SCc2ccccc2)c(C(F)(F)F)c(=O)[nH]1 | 10.8% |
| O=C(NCc1ccccc1)c1cccn(Cc2cccc(Cl)c2)c1=O | 7.25% |
| Cc1nc(SCC(=O)Nc2cc(C)on2)c2c3c(sc2n1)CCCC3 | 8.56% |
| O=C(N[C@H]1CCCCNC1=O)c1cc(COc2ccc(F)cc2F)on1 | 12.4% |

| SMILES | hERG current change (%, negative = inhibition) at 1uM |
| --- | --- |
| O=C(COC(=O)CNC(=O)c1cccc([N+](=O)[O-])c1)Nc1ccccc1OC(F)F | 2.85% |
| O=C(COc1ccc(F)cc1Cl)Nc1ccc(N2CCOCC2)cc1N1CCOCC1 | 6.92% |
| COc1ccc(OCCCC(=O)NCc2ccco2)cc1 | 4.9% |
| CCc1n[nH]c2c1C(=O)CC(C)(C)C2 | 11.1% |
| COc1ccccc1N1CCN(CC(=O)NCc2ccc(Cl)cc2)CC1 | 8.14% |
| O=C(O)/C(=C\c1cccc(F)c1)c1ccc(S(=O)(=O)N2CCCC2)s1 | 10.6% |
| O=C(NCCc1ccccc1)c1cnc2n(c1=O)CCS2 | 9.68% |
| O=C(COC(=O)c1ccc2c(c1)OCCO2)NC1CCCCC1 | 14.9% |
| CC(=O)Nc1ccc(Nc2nc(C)c([N+](=O)[O-])c(Nc3ccccc3)n2)cc1 | 10.4% |
| O=C1CCCC(O)=C1C=NCc1ccccc1 | 8.52% |
| CCN(Cc1cc2ccccc2[nH]c1=O)S(=O)(=O)c1ccc(OC)cc1 | 9.36% |
| Cc1nc(CSc2nnc(Nc3cccc(C)c3C)s2)cs1 | 14.4% |
| Cc1cccc(/C=N/NC(=O)c2cc(Br)ccc2OCc2ccccc2)n1 | 8.57% |
| CCn1c(NCc2ccc(N(C)C)cc2)nc2ccccc21 | -11.3% |
| O=C(NCc1ccncc1)/C(=C/c1cccc([N+](=O)[O-])c1)NC(=O)c1ccccc1 | -31.2% |
| O=C(CCc1nnc(COc2ccccc2)o1)NCc1ccccc1 | 12.9% |
| CC1(C)C(c2cccs2)=[N+]([O-])C2(CCCCC/C2=N\O)N1O (stereo not drawn) | 12.7% |
| CSCC[C@@H](C(=O)NCc1cccs1)N1Cc2ccccc2C1=O | 3.43% |
| COC(=O)C(O)(c1ccc(N(C)C)cc1)C(F)(F)F (stereo not drawn) | 11.5% |
| NNC(=S)Nc1ccc(OC(F)(F)F)cc1 | 11.3% |
| CNC(=O)CN1C(=O)C2C3C=CC(C3)C2C1=O (stereo not drawn) | 7.77% |
| COc1ccccc1NS(=O)(=O)c1cc(C(=O)NCCC(C)C)ccc1F | -1.98% |
| CC(C)CCNC(=O)CN(Cc1ccc2c(c1)OCO2)C(=O)Cn1nnc(-c2cccs2)n1 | 3.51% |

| SMILES | hERG current change (%, negative = inhibition) at 1uM |
| --- | --- |
| Cc1ccccc1C1CCCN(C(=O)c2cc(COc3c(F)cccc3F)on2)C1 (stereo not drawn) | 11.3% |
| Cc1ccc2nc3c(cc(C(=O)NCCc4ccccc4)c(=N)n3CC3CCCO3)c(=O)n2c1 (stereo not drawn) | -84% |
| C/C=C/C(=O)N1CC2(CC(c3cccc(NC(=O)CC(c4ccccc4)c4ccccc4)c3)=NO2)C[C@H]1C(N)=O (stereo partly drawn) | 12.2% |
| Cn1c(=O)c2c(=O)cc(NNC(=O)C(C)(C)C)[nH]c2n(C)c1=O | 8.35% |
| O=C(Nc1ccc(F)c(Cl)c1)c1cccnc1 | -27.9% |
| CCN1CCCC1CNS(=O)(=O)c1ccc(Br)cc1.Cl (stereo not drawn) | -5.39% |
| Cc1cc2nc(C3CCN(Cc4nnnn4Cc4ccccc4)CC3)[nH]c2cc1C | -50.7% |
| Cc1ccc(S(=O)(=O)Nc2c(C)nn(C)c2C)cc1 | 4.3% |
| N#Cc1c(-c2ccco2)ccn(Cc2ccc(F)cc2)c1=O | 2.5% |
| CCc1nnc(NC(=O)CSc2nc3c(c(=O)n2CC)SC(C)C3)s1 (stereo not drawn) | 14.2% |
| O=C(CCC(=O)NCCCc1ccccc1)NCCCc1ccccc1 | 13.2% |
| CC(C)CNS(=O)(=O)c1ccc(CCC(=O)Nc2ccc3c(c2)OCO3)cc1 | 6.96% |
| CC(=O)N/C(=C\c1ccc(C)o1)C(=O)NCc1ccccc1 | 9.09% |
| CCCC1(C(=O)OCC)NC(c2ccc(N(C)C)cc2)C2C(=O)N(c3ccc(OCC)cc3)C(=O)C21 (stereo not drawn) | 1.19% |
| Cc1cc(OCc2ccc(C(=O)NN=C3CCCC3)cc2)ccc1Cl | 6.91% |
| Cc1cccc(NC(=O)c2nc[nH]c2C(=O)N[C@@H](CC(C)C)C(=O)OC(C)(C)C)c1 | 15.1% |
| Cc1ccc[n+](C(C)C(=O)c2ccc(Cl)cc2)c1.[Br-] (stereo not drawn) | 14.7% |
| CCOCCCN1CC(C(=O)NCc2ccc3c(c2)OCO3)CC1=O (stereo not drawn) | 9.3% |
| CCN(CC)c1ccc(-c2sc(Nc3ccccc3)n[n+]2-c2ccc(F)cc2)cc1.[Cl-] | -9.37% |
| Cc1ccc(CNC(=O)CSc2ncn[nH]2)cc1 | 19% |
| CCCC(=O)Nc1ccc2oc(-c3ccc(OC)c(Br)c3)nc2c1 | 15.8% |
| O=[N+]([O-])c1ccccc1N/N=C/c1c[nH]c2ccccc12 | 13.8% |
| CN(CCCN1CCCCC1)C(=O)c1cc(COc2ccc(F)cc2F)on1 | -7.96% |

| SMILES | hERG current change (%, negative = inhibition) at 1uM |
| --- | --- |
| O=c1[nH]c(N/N=C/c2ccccc2)nc2ccccc12 | -4.64% |
| CN(c1ccccc1)S(=O)(=O)c1cccc(NC(=O)COc2cccc([N+](=O)[O-])c2)c1 | -10.2% |
| CCOC(=O)c1c(C)n(C)c2ccc(OC)c(NC(=O)CN3CCC(C(=O)OCC)CC3)c12 | 3.42% |
| Cc1[nH]c2ccccc2c1SCC(=O)N1CCCCCC1 | 1.1% |
| COc1cccc(/C=C/C(=O)OCC(=O)NCCNC(=O)COC(=O)/C=C/c2cccc(OC)c2)c1 | 10.7% |
| Cc1cc(NC(=O)CSc2nc3c(c(=O)n2-c2ccc(Cl)cc2)SCC3)no1 | -1.73% |
| CC(C)n1cnnc1SCC(=O)Nc1ccc(Br)cc1F | 10.9% |
| O=C(CCS(=O)(=O)c1ccccc1)Nc1ccccn1 | 16.8% |
| O=C(O)CCC(=O)Nc1ccc(F)cc1 | 9.35% |
| CCn1c(SCC(=O)Nc2nc3ccc(OC)cc3s2)nnc1-c1ccoc1C | 7.83% |
| O=C(OCc1ccc(F)cc1)c1ccc2ccccc2n1 | -15% |
| CCn1c(C(C)NC(C)=O)nc2ccccc21 (stereo not drawn) | 9.51% |
| COC(=O)C1=C(C)N(Cc2ccccc2)C(=NCCc2cccnc2)N[C@H]1c1ccccc1 | -23.2% |
| C=CCc1ccc(OCCOc2cccc3ccc(C)nc23)c(OC)c1.O=C(O)C(=O)O | 9.57% |
| CCNC(=S)NNC(=O)c1cc(C)nc2ccccc12 | 5.65% |
| COc1ccccc1C1CCN(c2cc(O)ccc2[N+](=O)[O-])CC1 | 9.54% |
| O=C(Nc1ccc(O)cc1)C1CCCO1 (stereo not drawn) | 12.5% |
| COc1cc(/C=N/NC(=O)c2c(C)nnn2-c2nonc2N)ccc1O | 2.94% |
| Cc1ccc(NC(=O)COC(=O)c2ccc([N+](=O)[O-])o2)cc1S(=O)(=O)N1CCCCCC1 | 3.92% |
| CNC(=O)CNC(=O)Nc1ccc(C)cc1 | 9.47% |
| Cl.O=C(O)c1ccc(Nc2nc(-c3cccnc3)nc3ccccc23)cc1 | 11.7% |
